Laboratory results reported in PubChem BioAssay AID1745853 (National Center for Advancing Translational Sciences (NCATS), 2022).
This is one part of the list. Further columns of the screen follow, without active or inactive calls.

Columns and labels:
Experiment in all cases: Primary Screen for Target Class Profiling of Small Molecule Inhibitors of Methyltransferases
[1] = target: Glycine N-methyltransferase (Homo sapiens) (UniProt Q14749); settings: purified enzyme, MTase-Glo SAH luminescence; measured here: GNMT inhibition; at 40 µM; stronger effect = lower value
Method in brief: (§1)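 Each enzyme was assayed with SAM and its substrate. SAH formation detected by MTase-Glo luminescence; single-point 40 uM screen[…].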

[2] = target: Guanidinoacetate N-methyltransferase (Homo sapiens) (UniProt Q14353); settings: purified enzyme, MTase-Glo SAH luminescence; measured here: GAMT inhibition; at 40 µM; stronger effect = lower value
Method in brief: as §1

[3] = target: Histamine N-methyltransferase (Homo sapiens) (UniProt P50135); settings: purified enzyme, MTase-Glo SAH luminescence; measured here: HNMT inhibition; at 40 µM; stronger effect = lower value
Method in brief: as §1

[4] = target: Nicotinamide N-methyltransferase (Homo sapiens) (UniProt P40261); settings: purified enzyme, MTase-Glo SAH luminescence; measured here: NNMT inhibition; at 40 µM; stronger effect = lower value
Method in brief: as §1

[5] = target: Phenylethanolamine N-methyltransferase (Homo sapiens) (UniProt P11086); settings: purified enzyme, MTase-Glo SAH luminescence; measured here: PNMT inhibition; at 40 µM; stronger effect = lower value
Method in brief: as §1
On the % scale 0 is the no-effect control and ±100 the full control effect.

Compound | activity change, negative = inhibition [1] [%] | activity change, negative = inhibition [2] [%] | activity change, negative = inhibition [3] [%] | activity change, negative = inhibition [4] [%] | activity change, negative = inhibition [5] [%]
COCCN1C(=O)CSc2c(c(C)nn2-c2ccccc2)C1C(=O)NCc1ccccc1OC (configuration not stated) | -1.26 | 2.25 | 6.13 | 1.22 | 3.4
CC1CCCC(NC(=O)C2(C)Cn3c(ccc3-c3ccco3)C(=O)N2Cc2ccccn2)C1C (configuration not stated) | -0.629 | 1.21 | 9.36 | -2.42 | 3.15
CCC(C)NC(=O)c1ccc2c(=O)n(C(C)C)c3nn(Cc4cccc(OC)c4)c(=O)n3c2c1 (configuration not stated) | -5.51 | -4.41 | 7.31 | -9.63 | -4.12
CC1CCN(S(=O)(=O)c2ccc3c(ccn3CCC(=O)N3CCCCC3)c2)CC1 | 2.52 | 4.24 | 6.95 | 0.799 | 3.06
C[C@H]1[C@H](O)O[C@@H]2O[C@@]3(C)CC[C@H]4[C@H](C)CC[C@@H]1[C@@]24OO3 | 0.405 | 11.3 | -3.27 | -13.8 | -5.7
CCCSCCCN1C(=O)c2cc3occc3n2CC1(C)C(=O)NC1CCCCCC1 (configuration not stated) | -1.35 | 2.85 | 0.738 | 0.743 | -4.91
Cc1cc(F)c(C(=O)Nc2cccc(-c3nncn3C(C)C)n2)cc1-n1cnc(C2CC2)c1 | -12.6 | -0.996 | -39.6 | -29.3 | -13
O=C(Cn1nc2n(Cc3ccccc3)c(=O)c3ccccc3n2c1=O)c1ccc(Br)cc1 | 0.571 | 4.95 | 5.66 | -2.02 | 0.904
CCc1ccc(NC(=O)Cn2nc3n(CCC(C)C)c(=O)c4ccccc4n3c2=O)cc1 | -4.05 | -1.34 | -0.143 | -9.48 | -4.48
COc1cccc(NCCC2(c3ccccc3)CC(C)(C)OC(C)(C)C2)c1 | -0.048 | -5.99 | 1.81 | -19.1 | -11.6
CC(C)C1=NOC2(CCN(C(=O)C3CCCC3)CC2)C1 | -1.51 | -4.42 | 0.981 | -7.37 | -3.28
Cc1ccc(CN2C(=O)c3cc(-c4ccco4)nn3CC2(C)C(=O)NC2CCC(C)CC2)cc1 (configuration not stated) | -7.28 | 0.642 | -2.77 | -6.57 | -7.79
O=C(Nc1ccc(CN2CCOCC2)cc1)c1ccc(-c2cccc(Cl)c2)o1 | -12.5 | 5.96 | -0.955 | -8.19 | 0.394
Cc1ccc(Cn2nc3n(C)c(=O)c4ccc(C(=O)NC5CCCCC5)cc4n3c2=O)cc1 | 7.32 | 0 | 10.2 | 4.28 | 6.68
CCC1(N2CCN(S(=O)(=O)c3cc(F)ccc3C)CC2)CCN(C(=O)NC)C1 (configuration not stated) | -1.21 | 0.543 | -1.44 | -1.34 | -3.87
CO[C@@H]1CC(OC2CCC3(C)C(CCC45CCC(C6=CC(=O)OC6)C(C)(CCC43)C5=O)C2)O[C@H](C)[C@@H]1O[C@@H]1O[C@H](CO[C@@H]2O[C@H](CO)[C@@H](O)[C@H](O)[C@H]2O)[C@@H](O)[C@H](O)[C@H]1O (some centres not stated) | -2.78 | -0.358 | 3.24 | -13.6 | -6.12
CCCn1c(=O)c2ccc(C(=O)NC(C)C)cc2n2c(=O)n(CC(=O)NC(C)C)nc12 | 3.37 | 5.34 | 2.88 | 4.22 | 0.703
CCOC(=O)c1csc(Nc2ccc(Cl)cc2)n1 | -25.1 | -23.1 | 8.67 | -29.5 | -9.39
COc1ccc(C2(O)c3c(ccc4c3OC(C)(CCC=C(C)C)C=C4)NC(=O)C2OC)cc1 (configuration not stated) | -0.135 | -5.39 | -0.181 | -23.1 | -0.856
CCCn1c(=O)c2ccc(C(=O)NCC(C)C)cc2n2c(=O)n(CC(=O)Nc3ccc(C)c(C)c3)nc12 | 4.31 | 3.52 | 6.88 | -0.576 | 1.56
O=C(Cn1nc2n(CCc3ccccc3)c(=O)c3ccccc3n2c1=O)c1cccc(Cl)c1 | -5.72 | -6.64 | 8.88 | -13 | -4.33
COc1ccc(CO[C@H]2COCCN(c3nc4ccccc4s3)C2)cc1 | -5.45 | -1.43 | -7.97 | -18.7 | -4.26
COc1ccc(C(=O)Nc2cnc3c(c2)CCC3)cc1 | -10.8 | -4.15 | -5.19 | -7.03 | 5.7
CC(C)Oc1ccc(C(=O)NC(CNC(=O)CN(C)C)Cc2ccc(-c3cn4cccc(C(C)O)c4n3)cc2)cc1Cl (configuration not stated) | 5.05 |  | 3.89 |  | 
CC1CC(=O)[C@]2(O)C(C(=O)OCCc3ccc(O)cc3)=CO[C@@H](O[C@@H]3O[C@H](CO)[C@@H](O)[C@H](O)[C@H]3O)[C@H]12 (some centres not stated) | 7.47 | 7.93 | 10.4 | -7.18 | 3.17
CCOc1ccccc1NC(=O)CN(C)S(=O)(=O)c1ccc2[nH]c3c(c2c1)CCCC3 | -6.13 | 2.86 | -3.41 | -6.1 | -1.8
O=C(c1cccnc1)N1CCC2(CC1)CC(N(C(=O)c1ccccc1)C1CC1)CCO2 (configuration not stated) | -1.21 | 1.14 | -0.604 | 0.557 | -3
COC(=O)CC(O)CC(O)/C=C/c1c(C)ccc2c1C(OC(C)=O)CC(C)C2 (configuration not stated) | 0 | -0.224 | -0.516 | -14.5 | 1.05
CC(C)n1c(=O)c2ccc(C(=O)NC3CCCC3)cc2n2c(=O)n(CC(=O)NC(C)(C)C)nc12 | 0.122 | 2.67 | 2.83 | 1.19 | -1.1
O=c1c2ccccc2n2c(=O)n(Cc3c(F)cccc3Cl)nc2n1CCc1ccccc1 | -5.45 | -5.74 | -0.537 | 0.557 | -5.95
